According to PMC4336329 (PLoS ONE, 2015):
Hit rate of the full screen: of about 310,000 compounds, about 2,200 (0.71%) showed an effect of 50% or more. The effect is printed as a negative number. Some of the results follow.

target: human ether-à-go-go-related gene (hERG) potassium channel (human, UniProt Q12809); experiment: primary screen, population patch clamp on CHO cells stably expressing hERG
Sequence (Q12809 whole entry, looked up): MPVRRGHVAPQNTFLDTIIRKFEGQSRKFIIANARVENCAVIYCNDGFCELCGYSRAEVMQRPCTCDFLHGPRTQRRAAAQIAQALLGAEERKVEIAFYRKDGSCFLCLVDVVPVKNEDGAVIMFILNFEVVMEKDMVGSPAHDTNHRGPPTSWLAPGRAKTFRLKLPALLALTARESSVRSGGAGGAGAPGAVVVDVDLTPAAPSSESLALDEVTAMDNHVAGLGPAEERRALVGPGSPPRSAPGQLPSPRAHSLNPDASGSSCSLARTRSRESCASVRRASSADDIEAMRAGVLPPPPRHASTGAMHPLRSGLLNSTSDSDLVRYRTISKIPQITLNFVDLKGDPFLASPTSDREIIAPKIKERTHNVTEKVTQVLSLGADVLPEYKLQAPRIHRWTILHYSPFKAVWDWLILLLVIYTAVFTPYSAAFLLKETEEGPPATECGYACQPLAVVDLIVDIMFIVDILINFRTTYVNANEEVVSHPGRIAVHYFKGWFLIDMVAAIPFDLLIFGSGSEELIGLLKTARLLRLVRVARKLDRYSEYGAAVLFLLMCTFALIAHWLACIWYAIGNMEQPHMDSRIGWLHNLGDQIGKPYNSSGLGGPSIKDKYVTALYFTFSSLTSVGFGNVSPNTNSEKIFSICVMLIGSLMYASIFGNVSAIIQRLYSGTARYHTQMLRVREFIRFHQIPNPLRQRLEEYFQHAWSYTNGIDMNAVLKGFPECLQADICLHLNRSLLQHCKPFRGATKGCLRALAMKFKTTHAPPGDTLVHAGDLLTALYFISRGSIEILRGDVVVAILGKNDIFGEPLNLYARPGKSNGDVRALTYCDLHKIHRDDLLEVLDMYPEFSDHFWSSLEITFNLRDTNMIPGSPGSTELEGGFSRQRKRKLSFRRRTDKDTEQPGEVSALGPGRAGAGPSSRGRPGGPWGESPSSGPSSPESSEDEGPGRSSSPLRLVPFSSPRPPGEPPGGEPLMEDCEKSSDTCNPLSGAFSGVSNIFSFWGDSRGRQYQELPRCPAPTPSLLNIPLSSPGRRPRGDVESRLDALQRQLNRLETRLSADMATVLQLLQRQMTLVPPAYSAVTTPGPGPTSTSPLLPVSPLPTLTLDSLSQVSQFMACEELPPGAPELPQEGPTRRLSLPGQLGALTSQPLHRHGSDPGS

Row | SMILES | hERG current change (%, negative = inhibition) at 1uM
1 | CCO[C@H]1OC(C(=O)N2CCOCC2)=C[C@@H](c2ccc(C(F)(F)F)cc2)[C@@H]1CCCO | -4.86%
2 | CCN(CC)CC#CCC(O)(c1ccccc1)c1ccc(Br)cc1.Cl (stereo not drawn) | 4.23%
3 | O=C(CP(=O)(CO)CO)c1ccc(Cl)cc1 | -1.03%
4 | CC(=O)n1cc(N(C(=O)CCl)c2ccc(C)cc2)c2ccccc21 | 11.7%
5 | CN(CC(=O)Nc1ncn[nH]1)S(=O)(=O)c1cc(Cl)ccc1Cl | -6.58%
6 | CCN(c1ccccc1)S(=O)(=O)c1ccc(Cl)c(C(=O)OCC(=O)c2[nH]c(C)c(C(C)=O)c2C)c1 | -5.09%
7 | O=C(COC(=O)c1ccccn1)NNC(=O)c1ccc([N+](=O)[O-])cc1 | -8.7%
8 | O=C(Cc1nn[nH]n1)NCc1ccccc1Cl | -6.71%
9 | OC1(c2cn(Cc3ccccc3)nn2)CCCCC1 | 7.09%
10 | CC(C)N(CCNC(=O)c1cn(C)c2ccc(S(=O)(=O)N(C)C)cc2c1=O)Cc1ccccc1 | 0.0714%
11 | CC(OC(=O)c1cccc(S(=O)(=O)N2CCCC2)c1)C(=O)c1ccccc1 (stereo not drawn) | 15.7%
12 | CC1Cc2ccccc2N1C(=O)CSc1nnc(C2CC2)n1C (stereo not drawn) | 12.6%
13 | O=C1c2ccccc2C(O)N1Cc1ccc2c(c1)OCO2 (stereo not drawn) | 11.8%
14 | Cc1ccc2nc(SCc3cn4c(C)cc(C)nc4n3)[nH]c2c1 | 1.84%
15 | CSCCC(NC(=O)c1ccco1)C(=O)N1CCN(Cc2ccccc2)CC1 (stereo not drawn) | -0.0338%
16 | CC1(C)CC2CC(C)(CN2Cc2c(O)ccc3ccccc23)C1 (stereo not drawn) | 5.04%
17 | O=C(NCCC1=CCCCC1)c1cc(COc2c(F)cccc2F)on1 | 9.73%
18 | Cc1noc(C(=O)Nc2c(C)nn(Cc3ccccc3)c2C)c1Cl | 10.1%
19 | CC(C)N(CCO)C(=O)C(c1ccccc1)c1ccccc1 | 5.9%
20 | CC1NC(=O)N(C)[C@@H]2NC(=O)N(C)C(c3ccc([N+](=O)[O-])cc3)[C@@H]12 (stereo partly drawn) | 9.47%
21 | O=C(Nc1cccc(F)c1)C1CC(=O)N(c2ccc(Cl)cc2)C1 (stereo not drawn) | 5.67%
22 | Nc1n[nH]c(-c2ccccc2)n1 | 2.25%
23 | COc1ccc(CN2CCNC(=O)C2CC(=O)NCc2cc(C)n(C)n2)c(F)c1 (stereo not drawn) | -7.54%

Row | SMILES | hERG current change (%, negative = inhibition) at 1uM
24 | COc1ccc(N(C)C2=NS(=O)(=O)c3ccccc32)cc1 | 14.5%
25 | CC(C)(CO)CNC(=O)CC1C(=O)NCCN1CC(c1ccccc1)c1ccccc1 (stereo not drawn) | -1.82%
26 | Cc1cc(Cl)c(S(=O)(=O)N2CCN(c3ccccn3)CC2)cc1OCC(N)=O | 10.7%
27 | O=C(CCN1C(=O)C2C3C=CC(C3)C2C1=O)NC1CCCCC1 (stereo not drawn) | 13.8%
28 | Cc1ccc2nc3n(c(=O)c2c1)-c1cc(Cl)ccc1C(=O)NC3Cc1ccccc1 (stereo not drawn) | 14.7%
29 | CCc1cccc(CC)c1NC(=O)C(NS(=O)(=O)c1cccs1)c1ccccc1 (stereo not drawn) | 5.54%
30 | CCN1CCN(C(=O)CN2C(=O)c3ccccc3S2(=O)=O)CC1.Cl | 7.47%
31 | COc1ccc(CNC(=O)c2cc(C)nc3ccccc23)cc1OC | 8.4%
32 | Cc1ccccc1NC(=S)N(CCN(C)C)C(C)c1cccnc1 (stereo not drawn) | -2.56%
33 | O=C(CN1C(=O)/C(=C/c2ccc(C(F)(F)F)cc2)Sc2ccccc21)NCCCN1CCOCC1 | 7.25%
34 | O=C(O)CCCCCCCCCC[n+]1ccccc1.[Br-] | 15.6%
35 | CCCCCCN1C=CC(=C2C(=O)c3ccccc3C2=O)C=C1 | 14.4%
36 | Cc1nn(C)cc1CNC(=O)C1CCC(=O)N(CC2CCCCC2)C1 (stereo not drawn) | -5.08%
37 | O=C1Nc2ccc(Br)cc2/C1=C/c1ccc(C(=O)O)cc1 | 16.2%
38 | O=C(NC1CCC(O)CC1)c1cc(-c2ccco2)nc2ccccc12 (stereo not drawn) | 14.6%
39 | COc1ccc(C(O)Cc2nccn2C)cc1 (stereo not drawn) | 3.22%
40 | CCc1nc(SCC(=O)NCCc2ccc(OC)c(OC)c2)c2c(=O)n(C)c(=O)n(C)c2n1 | 5.67%
41 | COC(=O)CC(NC(=O)c1ccc(C)cc1)c1ccc2c(c1)OCO2 (stereo not drawn) | 11.1%
42 | Cc1ccc([N+](=O)[O-])cc1S(=O)(=O)N1CCNCC1 | 19.2%
43 | CC(=O)N1CCN(c2ccc(NC(=O)c3ccc4ccccc4c3)cc2)CC1 | 5.08%
44 | CN(C(=O)c1ccccc1C(=O)c1ccccc1)C1CCS(=O)(=O)C1 (stereo not drawn) | 14.7%
45 | Cc1ccc(S(=O)(=O)N2CCN(C(=O)CN3CCCC3)C2)cc1 | -2.92%
